Measured values: PubChem BioAssay AID1347120 (National Center for Advancing Translational Sciences (NCATS), 2019)
In all, about 390,000 compounds went through this assay and about 930 (0.24%) were called active. Inconclusive means that the source gave no clear call. Such entries were picked first, then a sample of the others. The call rests on the fitted dose curve; in most records, active means well fitted activation curve with a large enough effect; inconclusive means small, poorly fitted or top-dose-only effect; inactive means no such curve, though single readings can be large or run the other way. Potencies of inconclusive entries are doubtful fits and often do not repeat.

Test: qHTS for Suppressors of FUS Proteinopathy: Primary screen using FUS-linked yeast assay; further: nearly all actives have a fitted effect of over 55% in size;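 on growth rescue (activation): plate controls were DMSO vehicle for no effect and reference control for full effect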
Conditions: S. cerevisiae FUS-expressing, OD600, 24 h; Potency: growth rescue; growth rescue (activation): at 76.6 µM (top of the series)
In short: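 S. cerevisiae expressing FUS from galactose induction served as the toxicity model. Growth after 24hr at 30C, read as absorbance at 600 nm, indicates suppression of toxicity; compounds dosed at several concentrations.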
Potency means the concentration at half of the fitted maximal effect; tags describe the fitted curve by direction and shape.

Compound	growth rescue (activation)	Potency
Cc1ccc(-n2nnnc2C(Cl)c2nnnn2-c2ccc(C)cc2)cc1	inactive: -28.5%	–
Cc1ccc(S(=O)(=O)N2C[C@H]3[C@H]4C(=O)N(c5ccccc5)C(=O)[C@H]4C[C@H](OC(=O)NCC4CCCCC4)[C@@]3(O)C2)cc1	–	inconclusive: 28.2 µM [activator, single point]
O=C1CC(=C2c3ccccc3-c3ccccc32)C(=O)N1CCCCN1CCN(c2ccccc2)CC1	–	inconclusive: 39.8 µM [activator, partial curve, poor fit]
COc1ccc(S(=O)(=O)N2CCOC23CCN(S(=O)(=O)c2ccc(C)cc2)CC3)cc1	–	inconclusive: 35.5 µM [activator, single point]
O=S1(=O)C=CCN1Cc1cn(Cc2cccc(C(F)(F)F)c2)nn1	inactive: -11.4%	–
Cc1ccc(C)c(N2CCN(S(=O)(=O)c3c(C)[nH]c(C)c3C(=O)N3CCCCC3)CC2)c1	–	inconclusive: 50.1 µM [activator, single point]
CCOC(=O)C1CCCN(C(=O)Cn2ncc3c4ccccc4n(Cc4ccccc4)c3c2=O)C1 (stereo unspecified)	–	inconclusive: 28.2 µM [activator, partial curve, poor fit]
Cc1ccc(NC(=S)NNC(=O)c2ccco2)cc1	inactive: -5.79%	–
COC1=CC(=Cc2c(N)n3nc(CC(=O)N4CCCCC4)sc3nc2=O)C=C(OC)C1=O	–	inconclusive: 15.8 µM [activator, partial curve, poor fit]
CCOc1ccc(-c2c(C)nn3c(C)c(C(=O)Nc4cccc(Cl)c4C)cnc23)cc1OCC	inactive: -7.38%	–
COc1ccccc1-c1cccc(-c2nc(C(=O)Nc3nccs3)cc3c2[C@H](CCO)N(C(C)=O)C3)c1	–	inconclusive: 28.2 µM [activator, single point]
COc1ccccc1C(=O)Nc1ccc2nc(SCC(=O)N3CCCC3)sc2c1	inactive: 4%	–
COc1ccc(CCn2c(=S)[nH]c3cc(C(=O)NCc4ccco4)ccc3c2=O)cc1OC	–	inconclusive: 12.6 µM [activator, partial curve, poor fit]
COc1ccc(C(=O)NC2CCSC2=O)cc1 (stereo unspecified)	–	inconclusive: 35.5 µM [activator, partial curve, poor fit]
Cc1ccc(S(=O)(=O)N2CCN(C(C(=O)Nc3ccc(F)cc3)c3ccccc3)CC2)cc1 (stereo unspecified)	–	inconclusive: 12.6 µM [activator, partial curve]
O=C(Nc1ccc2c(c1)OCO2)OC1CCC12CCCCC2 (stereo unspecified)	inactive: -3.12%	–
O=C(CSc1n[nH]c(-c2cccs2)n1)NCCc1ccccc1	–	inconclusive: 31.6 µM [activator, single point]
COc1ccc(OC)c(NC(=O)c2nc(S(=O)(=O)Cc3ccccc3)ncc2Cl)c1	–	inconclusive: 35.5 µM [activator, single point]
CCCC(C(=O)NCc1ccco1)N(C(=O)CNS(=O)(=O)c1ccccc1)C1CCCC1 (stereo unspecified)	–	inconclusive: 31.6 µM [activator, partial curve, poor fit]
COc1ccc(OC)c(CNC(=O)c2cc(S(=O)(=O)N3CCC(C)CC3)cn2C)c1	–	inconclusive: 28.2 µM [activator, single point]
O=C(NCc1n[nH]c(=S)n1-c1cccc(C(F)(F)F)c1)c1ccc(S(=O)(=O)N2CCCCC2)cc1	–	inconclusive: 50.1 µM [activator, single point]

Compound	growth rescue (activation)	Potency
CCN(CC)S(=O)(=O)c1ccc(C(=O)NCc2ccc3c(c2)cc(C)n3C)cc1	–	inconclusive: 35.5 µM [activator, single point]
O=[N+]([O-])c1cccc(/C=N/Nc2nccnc2Cl)c1	inactive: 0.0402%	–
COC(=O)C1CC23C=CCN4CCC5(c6ccccc6NC15C2C)C43 (stereo unspecified)	–	inconclusive: 35.5 µM [activator, single point]
O=C1CC(NCc2ccncc2)C(=O)N1c1ccc(Cl)cc1 (stereo unspecified)	–	inconclusive: 35.5 µM [activator, partial curve, poor fit]
COc1ccccc1-c1noc(-c2cccnc2)n1	inactive: -1.89%	–
Cc1csc(NC(=O)CNS(=O)(=O)c2cccs2)n1	inconclusive: 90.5% [activator]	–
COc1ccc(S(=O)(=O)NC(=O)C2(C)CCN2C(=O)c2ccccc2CCc2ccccc2)cc1 (stereo unspecified)	–	inconclusive: 39.8 µM [activator, single point]
COc1ccc(C2CC(=O)N3CN(c4ccc(C)c(Cl)c4)CSC3=C2C#N)cc1OC (stereo unspecified)	inactive: 6.57%	–
O=C(Cc1ccc(S(=O)(=O)N2CCOCC2)s1)N1CCN(S(=O)(=O)c2cccc(Cl)c2)CC1	–	inconclusive: 44.7 µM [activator, partial curve, poor fit]
Cc1ccc(NC(=O)C2CCCN(c3cnccn3)C2)cc1Cl (stereo unspecified)	inactive: -6.62%	–
Cc1ccccc1CN1C(=O)c2ccccc2Sc2ccc(C(=O)O)cc21	–	inconclusive: 14.1 µM [activator, single point]
CSc1ccc(/C=N\Nc2nncn2N)cc1	inactive: -21.3%	–
COc1ccc(/C=C2\SC(N)=NC2=O)cc1	inactive: -3.71%	–
NS(=O)(=O)c1ccc(CCNC(=O)C2Cc3ccccc3CN2C(=O)c2ccco2)cc1 (stereo unspecified)	–	inconclusive: 35.5 µM [activator, partial curve, poor fit]
CCOc1ccc(NC(=O)CCc2nc3cccnc3n2Cc2ccc(OC)cc2)cc1	inactive: -12.9%	–
Nc1nnc(SCC(=O)Nc2cccc(F)c2)s1	inactive: -29.6%	–
O=S(=O)(c1cccc(-c2csc(N/N=C/c3ccco3)n2)c1)N1CCOCC1	–	inconclusive: 25.1 µM [activator, single point]
O=c1cc(CSc2nnc(COc3ccccc3)n2-c2ccccc2)c2ccccc2[nH]1	–	inconclusive: 22.4 µM [activator, single point]
COC(=O)[C@]12C[C@H](CC(=O)NCCC(C)C)C(=O)N(Cc3ccc(Cl)cc3Cl)C1=C[C@H](C1CCCC1)O[C@@H]2C	–	inconclusive: 10 µM [activator, full curve, poor fit]
CC(CCc1ccccc1)NC(=O)CNC(=S)N(Cc1cccs1)C1CCCC1 (stereo unspecified)	–	inconclusive: 28.2 µM [activator, single point]
